Source: ChEMBL document CHEMBL1157539, “Thousands of chemical starting points for antimalarial lead identification” (Nature, 2010)
Values joined by “and” are separate entries in the source; they are usually repeats but may differ in a detail not shown here. Equal values may be shown once. Whole data set: some 13,000 compounds, median “IFI” near 4, cut for the highest 2% near 17. This is one part of the list.

test: GSK_TCMDC: Inhibition Frequency Index (IFI). The number of non-kinase HTS assays where a compound showed > 50 % inhibition, expressed as a percentage of the number of such assays in which the compound was tested (-0 is zero); type: functional

Compared with `O=C(Nc1cccc(C2=NCCN2)c1)Nc1cccc(C2=NCCN2)c1`, `O=C(Nc1ccccc1)Nc1cccc(-c2cccc(-c3nc4cc(F)ccc4[nH]3)c2)c1` is higher in IFI: 0.72% for the first, 3% for the second.

Compared with `COc1cc(NC(=O)c2cc3c(C)nn(-c4cccc(C(F)(F)F)c4)c3s2)cc(OC)c1OC`, `CCOC(=O)[C@H](Cc1cc([N+](=O)[O-])c(Oc2ccc(OC)c(Cc3ccc(OC)c(C(C)C)c3)c2)c([N+](=O)[O-])c1)NC(=O)C(F)(F)F` is higher in IFI: 0.71% for the first, 2.31% for the second.

First: CC(=O)Nc1nc(C(=O)Nc2ccc(-c3cccc(-c4nc5cccc(C)c5[nH]4)c3)cc2)cs1
Second: Cc1cccc2nc(-c3cccc(-c4cccc(NC(=O)c5cnccc5C(F)(F)F)c4)c3)[nH]c12
The IFI of the first is lower: 6.03% for the first, 7.34% for the second.

First: COC(=O)c1cccc(NC(=O)NCCNc2ccnc(Nc3ccc(F)cc3)n2)c1
Second: Cc1cc(NCCC(=O)NCCOc2ccccc2)nc(NCCc2ccc(F)cc2)n1
The IFI of the first is higher: 4.62% for the first, 2.44% for the second.

Going from `O=C(NC1CCCCN(Cc2ccccc2O)C1)c1cccc(Cl)c1` (configuration not stated) to `Nc1c2c(nc3ccc(NC(=O)Cc4ccccc4)cc13)CCCC2`, the IFI rises from 2.04% to 2.84%.

First: CCCOc1c(CCNCCCCNCCc2ccc3ccccc3c2OCCC)ccc2ccccc12
Second: COc1c(CNCCCCCCNCc2cc(Cl)c3ccccc3c2OC)cc(Cl)c2ccccc12
The IFI of the first is lower: 14.7% for the first, 19.4% for the second.

First: CC(CNc1nc(NCC(c2ccccc2)c2ccccc2)c2nc[nH]c2n1)c1ccccc1 (configuration not stated)
Second: CCCc1cc(=O)[nH]c(-n2nc(C)cc2NC(=O)CC(c2ccccc2)c2ccccc2)n1
The IFI of the first is lower: 4.55% for the first, 12.2% for the second.

First: OCC(CO)(CO)NCc1ccc2c3c(cccc13)-c1ccccc1-2
Second: O=c1cc(NCCCCNCc2cccc(C(F)(F)F)c2)[nH]c2ccccc12
The IFI of the first is higher: 6.06% for the first, 3.01% for the second.

First: CCc1c(C)nc2nc(Cc3cccc(F)c3)nn2c1N1CCN(c2ccccn2)CC1
Second: c1cc(CN2CCN(CCN3CCOCC3)CC2)cc(-c2csc(-c3nc4ccccc4[nH]3)c2)c1
The IFI of the first is lower: -0% for the first, 1.39% for the second.

Compared with `CCCCn1c(N)c(N(Cc2ccco2)C(=O)C=Cc2cc(OC)c3c(c2)OCCO3)c(O)nc1=O`, `CN(C)C(=O)c1ccc(CN(Cc2cccc(OC(C)(C)C)c2)Cc2ccc3c(c2)OCCO3)cc1` is higher in IFI: 1.22% for the first, 3.13% for the second.

First: COc1cc2c(cc1S(=O)(=O)c1ccc(NC(=O)c3cc4ccccc4s3)cc1)CCN(C)CC2
Second: CC(C)(C)c1ccc(NC(=O)c2cccc(CN3CCCN(Cc4ccsc4)CC3)c2)cc1
The IFI of the first is lower: 10.5% for the first, 11% for the second.

Going from `CCCc1cc(OC)c(CC2c3cc(O)c(C)cc3CCN2C)cc1OC` (configuration not stated) to `CCOc1cc2c(cc1OCC)C(c1cc(OC)c(O)cc1Cl)NCC2` (configuration not stated), the IFI rises from 1.42% to 3.25%.

First: COc1cc(OC)cc(C(=O)N2CCOC(CCN3CCC(c4ccccc4)CC3)(c3ccc(Cl)c(Cl)c3)C2)c1 (configuration not stated)
Second: COc1ccc(CC(=O)NC(CCN2CCC3(CCc4ccccc43)CC2)c2ccc(Cl)c(Cl)c2)cc1 (configuration not stated)
The IFI of the first is lower: 6.21% for the first, 6.94% for the second.

Compared with `Cc1noc(C)c1-c1cccc(CNCc2cccc(-c3cccc(-c4nc5cc(C(F)(F)F)ccc5[nH]4)c3)c2)c1`, `O=C(Nc1ccc(-c2cccc(-c3nc4ccccc4[nH]3)c2)cc1)Nc1ccc2c(c1)OCO2` is lower in IFI: 5.83% for the first, 5.05% for the second.

First: COc1ccc(NC(=O)C2c3ccccc3C(=O)N(C3CCCC3)C2c2cccs2)c(OC)c1 (configuration not stated)
Second: CCc1ccc(CN2CCC(CNC(=O)c3cc(-c4ccccc4F)cs3)C2)cc1 (configuration not stated)
The IFI of the first is lower: 5% for the first, 10.2% for the second.

First: CC(Cc1ccc(CNC(=O)c2ccc(CC(C)NCCc3cccc(Cl)c3)cc2)cc1)NCCc1cccc(Cl)c1 (configuration not stated)
Second: CC(CCc1ccc(OCc2ccccc2)cc1)NCC(O)c1ccccc1 (configuration not stated)
The IFI of the first is lower: 7.09% for the first, 9.56% for the second.

Going from `COc1ccc2ncc(F)c(CCN3CCC(NCc4cc5c(cn4)OCCS5)CC3)c2c1` to `Cc1ccc(NC(=S)NC2CCN(CCCCCNC(=O)/C=C/c3ccc(Cl)c(Cl)c3)CC2)cc1Cl`, the IFI rises from 3.65% to 11.1%.

First: Cc1onc(-c2c(Cl)cccc2Cl)c1C(=O)N1CCc2cc3nccc(N4CCN5CCC[C@H]5C4)c3cc21
Second: CC(C)[C@H](NC(=O)c1ccc(O)c(-c2ccc(Cl)c(Cl)c2)c1)C(=O)NCCN1CCCC1
The IFI of the first is higher: 2.26% for the first, 2.22% for the second.

First: O=S(=O)(NCCN1CCCC1)c1ccc(-c2cccc(CNCCc3cccs3)c2)cc1
Second: Cc1cccc2nc(-c3ccc(-c4cccc(C(=O)NCCN5CCCC5)c4)s3)[nH]c12
The IFI of the first is higher: 9.52% for the first, 5.41% for the second.

Compared with `O=C(Nc1ccncc1)c1cc(C(=O)Nc2ccncc2)cc([N+](=O)[O-])c1`, `O=C(Nc1ccc(Cl)cc1)Nc1cccc(-c2ccc(-c3nc4ccccc4[nH]3)cc2)c1` is higher in IFI: 1.52% for the first, 4.04% for the second.

First: N=C(N)NN=Cc1c2ccc(Cl)cc2c(Cl)c2ccc(Cl)cc12
Second: Clc1ccc2c(NCCCCCCCCNc3ccnc4cc(Cl)ccc34)ccnc2c1
The IFI of the first is higher: 4.51% for the first, 2.21% for the second.

First: Cc1cc(N[C@@H](CC(C)C)C(=O)NCCc2ccccc2)nc(NCC2CCCCC2)n1
Second: COc1ccc(NC(=O)CCNc2cc(C)nc(NCc3cccc(C)c3)n2)cc1
The IFI of the first is higher: 16.3% for the first, 0% for the second.

Going from `Oc1ccc(Cl)cc1-c1cc(C(F)(F)F)nc(-c2ccccc2)n1` to `Cc1[nH]c(C)c(-c2ccc(-c3ccccc3F)nc2)c(=O)c1Br`, the IFI falls from 0.72% to -0%.

Compared with `CCNc1cc(C(=O)NC(Cc2ccccc2)C(O)CNC2CCSCC2)cc(N2CCCC2=O)c1` (configuration not stated), `O=S(=O)(Nc1cccc(CCN2CCC(N3CCCCC3)CC2)c1)c1cccc(C(F)(F)F)c1` is higher in IFI: -0% for the first, 3.13% for the second.

Going from `CC1(C)NC(N)=NC(=N)N1OCc1cc(Cl)c(Cl)cc1CON1C(=N)N=C(N)NC1(C)C` to `CC1(C)NC(N)=NC(=N)N1OCc1cc(Cl)cc2c1OCOC2`, the IFI rises from 2.11% to 2.19%.

Going from `Oc1ccc(Br)cc1C(O)CNCc1ccccc1OCc1ccccc1` (configuration not stated) to `NC1=NC(c2ccccc2)N(c2ccccc2)C(N)=N1` (configuration not stated), the IFI falls from 3.88% to 0.71%.

Compared with `ON=C1c2cc(OCCN3CCCCC3)c(Cl)cc2-c2cc(Cl)c(OCCN3CCCCC3)cc21`, `Clc1cc(Cl)c2cc(CN[C@H]3CCC[C@@H]3CNc3nc4ccccc4[nH]3)[nH]c2c1` is higher in IFI: 9.42% for the first, 14% for the second.

Going from `COc1ccc(-c2cnc3ccc(NCCCO)nn23)cc1OC` to `CN(C)c1ccc(/N=C2/N/C(=N/c3ccc(N(C)C)cc3)c3ccccc32)cc1`, the IFI falls from 6.77% to 5.63%.

With `O=C(Nc1ccc(Cn2ncc(N3CCCNCC3)c(Cl)c2=O)cc1)Nc1ccc(-c2ccccc2)cc1` the IFI was 6.16% and 10.3%.
